The full ranking holds about 2,900 compounds; the median of “NF-kB SEAP reporter activity, fold change vs agonist alone” is about 0.99, and the highest 2% start at about 2.6. The list shows a part of the results.
What was measured:
RAW-Dual [1] = experiment: NF-kB SEAP reporter activity, fold change vs agonist alone; higher = enhanced NF-kB activity; details: library stock concentration (final ~1000-fold dilution): 10 mM
Summary of the method: (§1)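 Cytotoxic wells were those whose IncuCyte confluency was below 70% of agonist controls in both mask sets. The cells were RAW-Dual macrophages at 50,000 cells/well in DMEM on 384-well plates, dosed with 50 nL of library stock by pin tool, stimulated with a PRR agonist 1 h later, and kept at 37 °C, 5% CO2 for 20 hours. IRF and NF-κB reporter activity, as fold change over agonist-alone wells, came from supernatant read by QuantiLuc luminescence and QuantiBlue absorbance, respectively.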

RAW-Dual [2] = experiment: NF-kB SEAP reporter activity, fold change vs agonist alone; cytotoxicity flag (confluency mask): cytotoxic (confluency <70% of control); higher = enhanced NF-kB activity
Summary of the method: as §1

RAW-Dual [3] = experiment: NF-kB SEAP reporter activity, fold change vs agonist alone; cytotoxicity flag (confluency mask): not cytotoxic; higher = enhanced NF-kB activity
Summary of the method: as §1

[4] = cytotoxicity flag (confluency mask): cytotoxic (confluency <70% of control), agonist: Imiquimod (TLR7) […]
[5] = cytotoxicity flag (confluency mask): cytotoxic (confluency <70% of control), agonist: MPLA (TLR4) […]
[6] = agonist: ODN 1826 (TLR9) 0.5 ug/mL
[7] = agonist: Pam2CSK4 (TLR2/6) 0.1 ug/mL
[8] = agonist: Pam3CSK4 (TLR2/1) 0.1 ug/mL
[9] = cytotoxicity flag (confluency mask): not cytotoxic, agonist: Imiquimod (TLR7) […]
[10] = cytotoxicity flag (confluency mask): not cytotoxic, agonist: MPLA (TLR4) […]

## CN(C)C/C=C/C(=O)Nc1cc2c(Nc3ccc(F)c(Cl)c3)ncnc2cc1OC1CCOC1.O=C(O)/C=C\C(=O)O.O=C(O)/C=C\C(=O)O (stereo not drawn)
RAW-Dual [1]; [4]
  NF-kB SEAP reporter activity: 1.3
RAW-Dual [1]; [5]
  NF-kB SEAP reporter activity: 0.365

## CC(C)=CCC/C(C)=C/Cc1c(O)c(CC=C(C)C)c2c(c1O)C(=O)C1=CC3CC4C(C)(C)OC(C/C=C(/C)C(=O)O)(C3=O)C14O2 (stereo not drawn) (library stock concentration (final ~1000-fold dilution): 10 mM)
RAW-Dual [2]; agonist: LPS (TLR4) 0.1 ug/mL
  NF-kB SEAP reporter activity: 0.888
RAW-Dual [2]; [6]
  NF-kB SEAP reporter activity: 1.04
RAW-Dual [2]; [7]
  NF-kB SEAP reporter activity: 0.553
RAW-Dual [2]; [8]
  NF-kB SEAP reporter activity: 0.619

## CC(C)=CCC/C(C)=C/Cc1c(O)c(CC=C(C)C)c2c(c1O)C(=O)C1=CC3CC4C(C)(C)OC(C/C=C(/C)C(=O)O)(C3=O)C14O2 (stereo not drawn)
RAW-Dual [1]; [4]
  NF-kB SEAP reporter activity: 1.45
RAW-Dual [1]; [5]
  NF-kB SEAP reporter activity: 1.6

## CCOC(=O)Nc1cc(-c2ccc(C)c(NS(C)(=O)=O)c2)nn2c(C)nnc12 (library stock concentration (final ~1000-fold dilution): 10 mM)
RAW-Dual [3]; agonist: LPS (TLR4) 0.1 ug/mL
  NF-kB SEAP reporter activity: 3.81

## COc1cc2c3cc1Oc1c(OC)c(OC)cc4c1[C@@H](Cc1ccc(O)c(c1)Oc1ccc(cc1)C[C@@H]3N(C)CC2)N(C)CC4
RAW-Dual [1]; [9]
  NF-kB SEAP reporter activity: 0.961
RAW-Dual [1]; [10]
  NF-kB SEAP reporter activity: 1.04

## COc1cc2c3cc1Oc1c(OC)c(OC)cc4c1[C@@H](Cc1ccc(O)c(c1)Oc1ccc(cc1)C[C@@H]3N(C)CC2)N(C)CC4 (library stock concentration (final ~1000-fold dilution): 10 mM)
RAW-Dual [3]; agonist: LPS (TLR4) 0.1 ug/mL
  NF-kB SEAP reporter activity: 1.15
RAW-Dual [3]; [6]
  NF-kB SEAP reporter activity: 1.13
RAW-Dual [3]; [7]
  NF-kB SEAP reporter activity: 1.12
RAW-Dual [3]; [8]
  NF-kB SEAP reporter activity: 1.04

## O=S(=O)(O)c1ccc2cc(N=Nc3cc(S(=O)(=O)O)c4cccnc4c3O)ccc2c1
RAW-Dual [1]; [9]
  NF-kB SEAP reporter activity: 0.525
RAW-Dual [1]; [10]
  NF-kB SEAP reporter activity: 0.934

## O=S(=O)(O)c1ccc2cc(N=Nc3cc(S(=O)(=O)O)c4cccnc4c3O)ccc2c1 (library stock concentration (final ~1000-fold dilution): 10 mM)
RAW-Dual [3]; agonist: LPS (TLR4) 0.1 ug/mL
  NF-kB SEAP reporter activity: 0.838
RAW-Dual [3]; [6]
  NF-kB SEAP reporter activity: 0.925
RAW-Dual [3]; [7]
  NF-kB SEAP reporter activity: 0.921
RAW-Dual [3]; [8]
  NF-kB SEAP reporter activity: 1.08

## COc1cc2c(Oc3ccc4[nH]c(C)cc4c3F)ncnc2cc1OCCCN1CCCC1
RAW-Dual [1]; [4]
  NF-kB SEAP reporter activity: 1.98
RAW-Dual [1]; [5]
  NF-kB SEAP reporter activity: 1.96

## COc1cc2c(Oc3ccc4[nH]c(C)cc4c3F)ncnc2cc1OCCCN1CCCC1 (library stock concentration (final ~1000-fold dilution): 10 mM)
RAW-Dual [2]; agonist: LPS (TLR4) 0.1 ug/mL
  NF-kB SEAP reporter activity: 0.671
RAW-Dual [2]; [6]
  NF-kB SEAP reporter activity: 0.212
RAW-Dual [2]; [7]
  NF-kB SEAP reporter activity: 1.03
RAW-Dual [2]; [8]
  NF-kB SEAP reporter activity: 1.37

## CCc1nn(CCCN2CCN(c3cccc(Cl)c3)CC2)c(=O)n1CCOc1ccccc1.Cl
RAW-Dual [1]; [10]
  NF-kB SEAP reporter activity: 0.878

## CCc1nn(CCCN2CCN(c3cccc(Cl)c3)CC2)c(=O)n1CCOc1ccccc1.Cl (library stock concentration (final ~1000-fold dilution): 10 mM)
RAW-Dual [3]; agonist: LPS (TLR4) 0.1 ug/mL
  NF-kB SEAP reporter activity: 0.981
RAW-Dual [3]; [6]
  NF-kB SEAP reporter activity: 0.799
RAW-Dual [3]; [7]
  NF-kB SEAP reporter activity: 0.822
RAW-Dual [3]; [8]
  NF-kB SEAP reporter activity: 0.646

## CC(NC(=O)C(O)c1cc(F)cc(F)c1)C(=O)NC1C(=O)N(C)c2ccccc2-c2ccccc21 (stereo not drawn)
RAW-Dual [1]; [9]
  NF-kB SEAP reporter activity: 0.951
RAW-Dual [1]; [10]
  NF-kB SEAP reporter activity: 0.867

## CC(NC(=O)C(O)c1cc(F)cc(F)c1)C(=O)NC1C(=O)N(C)c2ccccc2-c2ccccc21 (stereo not drawn) (library stock concentration (final ~1000-fold dilution): 10 mM)
RAW-Dual [3]; agonist: LPS (TLR4) 0.1 ug/mL
  NF-kB SEAP reporter activity: 1.3
RAW-Dual [3]; [6]
  NF-kB SEAP reporter activity: 0.848
RAW-Dual [3]; [7]
  NF-kB SEAP reporter activity: 0.759
RAW-Dual [3]; [8]
  NF-kB SEAP reporter activity: 0.722

## CC(C)n1cc(-c2ccc3c(c2)N(C)CC3)c2c(NS(=O)(=O)c3ccn(C)n3)ccnc21 (library stock concentration (final ~1000-fold dilution): 10 mM)
RAW-Dual [3]; agonist: LPS (TLR4) 0.1 ug/mL
  NF-kB SEAP reporter activity: 1.25
RAW-Dual [3]; [6]
  NF-kB SEAP reporter activity: 1.12
RAW-Dual [3]; [7]
  NF-kB SEAP reporter activity: 1.14
RAW-Dual [3]; [8]
  NF-kB SEAP reporter activity: 1.07

## CC(C)n1cc(-c2ccc3c(c2)N(C)CC3)c2c(NS(=O)(=O)c3ccn(C)n3)ccnc21
RAW-Dual [1]; [9]
  NF-kB SEAP reporter activity: 0.948
RAW-Dual [1]; [10]
  NF-kB SEAP reporter activity: 1.02

## Cl.Cl.NC1CCC(NC2CC2c2ccccc2)CC1 (stereo not drawn)
RAW-Dual [1]; [9]
  NF-kB SEAP reporter activity: 1.03
RAW-Dual [1]; [10]
  NF-kB SEAP reporter activity: 1.37

## Cl.Cl.NC1CCC(NC2CC2c2ccccc2)CC1 (stereo not drawn) (library stock concentration (final ~1000-fold dilution): 10 mM)
RAW-Dual [3]; agonist: LPS (TLR4) 0.1 ug/mL
  NF-kB SEAP reporter activity: 1.25
RAW-Dual [3]; [6]
  NF-kB SEAP reporter activity: 0.222
RAW-Dual [3]; [7]
  NF-kB SEAP reporter activity: 0.869
RAW-Dual [3]; [8]
  NF-kB SEAP reporter activity: 0.615

## O=[N+]([O-])c1cccc2cn[nH]c12
RAW-Dual [1]; [9]
  NF-kB SEAP reporter activity: 1.01
RAW-Dual [1]; [10]
  NF-kB SEAP reporter activity: 1.09

## O=[N+]([O-])c1cccc2cn[nH]c12 (library stock concentration (final ~1000-fold dilution): 10 mM)
RAW-Dual [3]; agonist: LPS (TLR4) 0.1 ug/mL
  NF-kB SEAP reporter activity: 0.887
RAW-Dual [3]; [6]
  NF-kB SEAP reporter activity: 1.03
RAW-Dual [3]; [7]
  NF-kB SEAP reporter activity: 1.12
RAW-Dual [3]; [8]
  NF-kB SEAP reporter activity: 0.837

## COc1ccccc1OCC(O)CN1CCN(CC(=O)Nc2c(C)cccc2C)CC1 (stereo not drawn) (library stock concentration (final ~1000-fold dilution): 10 mM)
RAW-Dual [3]; agonist: LPS (TLR4) 0.1 ug/mL
  NF-kB SEAP reporter activity: 1.09
RAW-Dual [3]; [6]
  NF-kB SEAP reporter activity: 0.987
RAW-Dual [3]; [7]
  NF-kB SEAP reporter activity: 1.04
RAW-Dual [3]; [8]
  NF-kB SEAP reporter activity: 1.17

## COc1ccccc1OCC(O)CN1CCN(CC(=O)Nc2c(C)cccc2C)CC1 (stereo not drawn)
RAW-Dual [1]; [9]
  NF-kB SEAP reporter activity: 0.877
RAW-Dual [1]; [10]
  NF-kB SEAP reporter activity: 0.855

## CCCNCC(O)COc1ccccc1C(=O)CCc1ccccc1 (stereo not drawn) (library stock concentration (final ~1000-fold dilution): 10 mM)
RAW-Dual [3]; agonist: LPS (TLR4) 0.1 ug/mL
  NF-kB SEAP reporter activity: 1.07
RAW-Dual [3]; [6]
  NF-kB SEAP reporter activity: 0.715
RAW-Dual [3]; [7]
  NF-kB SEAP reporter activity: 0.845
RAW-Dual [3]; [8]
  NF-kB SEAP reporter activity: 1.1

## CCCNCC(O)COc1ccccc1C(=O)CCc1ccccc1 (stereo not drawn)
RAW-Dual [1]; [9]
  NF-kB SEAP reporter activity: 1.3
RAW-Dual [1]; [10]
  NF-kB SEAP reporter activity: 1.21

— the supplement of paper PMC10037445
